Test results as given in article PMC4336329 (PLoS ONE, 2015).
Out of some 310,000 compounds screened, about 14,000 (4.5%) showed an effect of 50% or more. Effects have a minus sign here. Some of the results follow.

Target: human ether-à-go-go-related gene (hERG) potassium channel (human, UniProt Q12809)
Experiment: primary screen, population patch clamp on CHO cells stably expressing hERG
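Also: peak tail current of the secondary pulse compared with the same well before compound.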

human ether-à-go-go-related gene (hERG) potassium channel, sequence (Q12809 whole entry, looked up): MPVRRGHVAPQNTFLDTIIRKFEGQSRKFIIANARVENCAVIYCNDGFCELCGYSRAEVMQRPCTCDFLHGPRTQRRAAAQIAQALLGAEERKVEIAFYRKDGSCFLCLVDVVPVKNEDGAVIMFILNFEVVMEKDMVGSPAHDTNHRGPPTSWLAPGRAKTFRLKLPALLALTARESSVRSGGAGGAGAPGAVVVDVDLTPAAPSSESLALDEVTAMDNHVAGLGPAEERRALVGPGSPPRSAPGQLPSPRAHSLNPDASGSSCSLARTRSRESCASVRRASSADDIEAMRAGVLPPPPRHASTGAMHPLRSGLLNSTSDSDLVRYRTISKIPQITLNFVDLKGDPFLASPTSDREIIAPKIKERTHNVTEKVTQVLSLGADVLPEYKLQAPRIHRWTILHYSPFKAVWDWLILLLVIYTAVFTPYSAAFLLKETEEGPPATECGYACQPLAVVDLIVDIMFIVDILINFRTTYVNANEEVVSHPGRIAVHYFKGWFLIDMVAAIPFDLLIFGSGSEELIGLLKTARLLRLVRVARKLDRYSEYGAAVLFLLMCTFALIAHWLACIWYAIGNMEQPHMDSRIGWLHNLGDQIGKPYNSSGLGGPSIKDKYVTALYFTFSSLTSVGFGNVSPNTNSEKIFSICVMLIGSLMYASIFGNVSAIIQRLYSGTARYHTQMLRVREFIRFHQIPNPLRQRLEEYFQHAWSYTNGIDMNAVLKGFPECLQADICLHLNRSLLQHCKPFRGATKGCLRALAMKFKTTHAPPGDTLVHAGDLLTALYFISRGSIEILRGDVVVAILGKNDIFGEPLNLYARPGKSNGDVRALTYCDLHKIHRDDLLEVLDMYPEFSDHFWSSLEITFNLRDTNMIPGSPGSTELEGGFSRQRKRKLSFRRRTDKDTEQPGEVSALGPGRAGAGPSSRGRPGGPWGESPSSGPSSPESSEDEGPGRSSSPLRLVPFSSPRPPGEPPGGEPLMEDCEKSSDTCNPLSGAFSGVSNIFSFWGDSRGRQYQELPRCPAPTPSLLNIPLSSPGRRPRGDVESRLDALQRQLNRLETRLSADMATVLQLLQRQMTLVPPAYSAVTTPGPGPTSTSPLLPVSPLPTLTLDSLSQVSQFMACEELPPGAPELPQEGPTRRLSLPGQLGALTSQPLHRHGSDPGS

SMILES	hERG current change (%, negative = inhibition) at 10uM [%]
O=C(Nc1ccc(F)cc1)c1ccc(-n2ccnc2)nc1	-24.5
N=c1c(C(=O)NC2CCCC2)cc2c(=O)n3ccccc3nc2n1CCN1CCOCC1	-91.9
COc1ccc(/C=N/NC(=O)C(C)n2cnc3ccccc3c2=O)cc1 (centres unmarked)	-47.9
CCCc1nnc(NC(=O)c2cc(OC)cc(OC)c2)s1	-4.25
C=CCSc1ncc(CO)n1Cc1ccccc1	-5.58
COCCCC1CCN(C(=O)C2CCC(=O)N(Cc3cccc(F)c3)C2)CC1 (centres unmarked)	1.36
Nc1nonc1C(=O)NCCNC(=O)c1ccc(Cl)c(Cl)c1	-11.1
CC(=O)N1CCN(C(=O)c2cc(S(=O)(=O)N3CCCCC3)ccc2Cl)CC1	9.6
C=CC[N+](C)(C)CCN1C(=O)C2C(c3ccccc3)C=CC(c3ccccc3)C2C1=O.[Br-] (centres unmarked)	7.96
Cc1ccc(NC(=O)CSCC(=O)NCCc2ccccc2)cc1	12.8
Cc1[nH]c(=O)[nH]c(=O)c1/C=N\NC(=O)CCc1ccc(OC(C)C)cc1	16.8
CC(=O)N1CCN(Cc2ccc(Br)s2)CC1	-2.46
CCN(CC)c1ccc(NC(=O)CN(C)Cc2cccs2)cc1	6.07
CCc1c(C)sc2nc(C(C)C)nc(SCC(=O)N3CCc4ccccc4C3)c12	-5.93
CCOC(=O)c1c(NC(=O)c2cc(CC(C)C)on2)sc(C(C)=O)c1C	18.2
Cc1nc2ccccn2c1C(=O)N/N=C/c1ccc([N+](=O)[O-])o1	-64.1
CN(Cc1ccon1)Cc1cn(C)nc1-c1ccc2c(c1)OCCO2	11.2
COc1ccc(N2C(=O)CC(Nc3cccc([N+](=O)[O-])c3)C2=O)cc1 (centres unmarked)	2.97
CCN1C(=O)CC(NC2CCN(C(=O)c3ccc(F)cc3)CC2)C1=O (centres unmarked)	12.4
Cc1ccnc(NC(=O)C2COc3ccccc3O2)c1 (centres unmarked)	2.02
Cc1cccc(NC(=O)Cn2nc(C(F)(F)F)cc2C2CC2)c1	-3.57
COc1ccc(Nc2ncnc3c2cnn3Cc2ccc(C)cc2)cc1	-1.4
COCC(=O)N(C)c1nnc(-c2ccccn2)s1	4.23
C(=N\c1nccs1)/Nc1nccs1	7.61
CCN1CCN(CC(=O)c2cc(OC)c(OC)c(OC)c2)CC1	12.8
COc1ccccc1C(CNc1ncccc1[N+](=O)[O-])N(C)C (centres unmarked)	-22
